Experiment in all cases: two-hybrid; Gal4 system; baits in pGBKT7 (BD), preys in pGADT7 (AD), cotransformed into yeast AH109; growth on dropout medium lacking Leu, Trp, His and Ade for 4 days
In assay [1] the target is T1, BD-PRR5^1-180 (Arabidopsis thaliana) (UniProt Q6LA42).
T1 sequence: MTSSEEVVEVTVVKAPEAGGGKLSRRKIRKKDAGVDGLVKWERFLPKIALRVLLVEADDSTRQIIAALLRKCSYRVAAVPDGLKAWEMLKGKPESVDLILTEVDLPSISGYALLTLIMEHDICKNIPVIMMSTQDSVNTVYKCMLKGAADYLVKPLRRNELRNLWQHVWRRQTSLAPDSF

Protein sequences, listed by entry. Tags and fused reporters are not part of them.
UniProt P92973: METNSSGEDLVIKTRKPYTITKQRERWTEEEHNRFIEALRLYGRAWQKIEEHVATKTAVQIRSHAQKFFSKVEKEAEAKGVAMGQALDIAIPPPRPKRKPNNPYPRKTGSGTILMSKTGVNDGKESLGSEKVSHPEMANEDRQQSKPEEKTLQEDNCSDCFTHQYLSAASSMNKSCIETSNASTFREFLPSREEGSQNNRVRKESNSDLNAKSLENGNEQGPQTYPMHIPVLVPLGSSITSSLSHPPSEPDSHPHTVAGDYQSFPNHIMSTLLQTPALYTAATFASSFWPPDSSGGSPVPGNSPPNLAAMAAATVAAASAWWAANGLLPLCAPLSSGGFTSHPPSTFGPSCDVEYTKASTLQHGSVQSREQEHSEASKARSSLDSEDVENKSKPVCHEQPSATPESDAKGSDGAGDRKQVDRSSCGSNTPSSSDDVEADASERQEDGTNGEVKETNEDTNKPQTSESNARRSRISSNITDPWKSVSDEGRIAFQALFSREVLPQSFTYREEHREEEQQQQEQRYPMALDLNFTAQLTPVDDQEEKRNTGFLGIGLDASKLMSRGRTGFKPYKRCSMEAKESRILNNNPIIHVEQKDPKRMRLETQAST

In assay [2] the target is BD-CCA1 (… CLOCK-ASSOCIATED1, full length, fused to the Gal4 DNA-binding domain) (Arabidopsis thaliana) (UniProt P92973).
In assay [3] the target is T2, BD-PRR5^502-558 (Arabidopsis thaliana) (UniProt Q6LA42).
T2 sequence: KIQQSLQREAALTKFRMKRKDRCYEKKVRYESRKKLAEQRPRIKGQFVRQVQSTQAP

Assay [4] has as its target T3, BD-PRR5^172-558 (Arabidopsis thaliana) (UniProt Q6LA42).
T3 sequence: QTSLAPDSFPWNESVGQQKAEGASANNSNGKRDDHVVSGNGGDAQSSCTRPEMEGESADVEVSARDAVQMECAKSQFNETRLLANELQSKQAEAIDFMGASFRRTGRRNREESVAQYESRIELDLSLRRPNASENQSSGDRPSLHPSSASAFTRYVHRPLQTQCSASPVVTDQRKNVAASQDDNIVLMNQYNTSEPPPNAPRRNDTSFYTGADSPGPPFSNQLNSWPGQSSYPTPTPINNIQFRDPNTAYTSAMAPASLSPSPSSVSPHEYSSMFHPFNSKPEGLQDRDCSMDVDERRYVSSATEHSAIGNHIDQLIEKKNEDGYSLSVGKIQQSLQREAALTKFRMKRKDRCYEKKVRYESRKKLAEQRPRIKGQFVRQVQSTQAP

The target in assay [5] is T4, BD-TOC1 (TIMING OF CAB EXPRESSION1, full length, fused to the Gal4 DNA-binding domain) (Arabidopsis thaliana) (UniProt Q9LKL2).
T4 sequence: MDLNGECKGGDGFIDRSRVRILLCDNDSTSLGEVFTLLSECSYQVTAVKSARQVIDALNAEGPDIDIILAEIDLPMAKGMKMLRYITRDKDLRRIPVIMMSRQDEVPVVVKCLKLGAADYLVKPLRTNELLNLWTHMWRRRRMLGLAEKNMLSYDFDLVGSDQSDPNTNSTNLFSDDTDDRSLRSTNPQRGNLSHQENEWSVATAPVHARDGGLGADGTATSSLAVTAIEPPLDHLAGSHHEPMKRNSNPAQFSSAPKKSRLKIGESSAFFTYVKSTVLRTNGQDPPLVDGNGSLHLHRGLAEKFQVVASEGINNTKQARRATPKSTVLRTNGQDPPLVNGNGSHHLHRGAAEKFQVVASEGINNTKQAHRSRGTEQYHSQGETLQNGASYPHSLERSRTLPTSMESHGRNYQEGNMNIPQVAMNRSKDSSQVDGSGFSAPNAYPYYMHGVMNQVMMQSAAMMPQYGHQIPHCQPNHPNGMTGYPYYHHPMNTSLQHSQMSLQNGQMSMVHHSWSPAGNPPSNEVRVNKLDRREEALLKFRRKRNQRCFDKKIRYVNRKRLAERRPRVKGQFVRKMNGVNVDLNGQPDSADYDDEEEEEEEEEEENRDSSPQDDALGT

In assay [6] the target is T5, BD-LHY (LATE ELONGATED HYPOCOTYL, full length, fused to the Gal4 DNA-binding domain) (Arabidopsis thaliana) (UniProt Q6R0H1).
T5 sequence: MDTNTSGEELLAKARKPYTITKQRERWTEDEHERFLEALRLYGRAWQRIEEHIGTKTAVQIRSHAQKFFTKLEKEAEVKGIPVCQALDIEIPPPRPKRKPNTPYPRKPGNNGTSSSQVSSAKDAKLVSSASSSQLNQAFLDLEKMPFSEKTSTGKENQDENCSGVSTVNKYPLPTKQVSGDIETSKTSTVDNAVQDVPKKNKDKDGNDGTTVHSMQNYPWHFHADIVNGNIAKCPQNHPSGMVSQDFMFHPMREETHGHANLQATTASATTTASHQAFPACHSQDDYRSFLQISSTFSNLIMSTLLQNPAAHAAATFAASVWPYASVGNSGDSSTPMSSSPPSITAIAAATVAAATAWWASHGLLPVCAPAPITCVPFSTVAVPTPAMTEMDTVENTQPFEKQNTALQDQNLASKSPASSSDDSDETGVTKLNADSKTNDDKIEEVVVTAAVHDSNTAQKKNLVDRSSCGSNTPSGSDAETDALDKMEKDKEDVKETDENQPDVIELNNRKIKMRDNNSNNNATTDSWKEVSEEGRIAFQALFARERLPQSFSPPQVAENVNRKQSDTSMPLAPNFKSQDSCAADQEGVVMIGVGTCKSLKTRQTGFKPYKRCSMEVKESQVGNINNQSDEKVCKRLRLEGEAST

Among the data in paper PMC8462813 are binding values, retold here.

Results are given in words; binding and its absence hold for the method and conditions named. Some binding calls cover weakened binding; strength is not graded here. Where a sequence is shown, tags or fusion partners need not be part of it.

B1: AD-ABI5 (ABSCISIC ACID-…5, full length, fused to the Gal4 activation domain) (protein, UniProt Q9SJN0 1-442)
chain: MVTRETKLTSEREVESSMAQARHNGGGGGENHPFTSLGRQSSIYSLTLDEFQHALCENGKNFGSMNMDEFLVSIWNAEENNNNQQQAAAAAGSHSVPANHNGFNNNNNNGGEGGVGVFSGGSRGNEDANNKRGIANESSLPRQGSLTLPAPLCRKTVDEVWSEIHRGGGSGNGGDSNGRSSSSNGQNNAQNGGETAARQPTFGEMTLEDFLVKAGVVREHPTNPKPNPNPNQNQNPSSVIPAAAQQQLYGVFQGTGDPSFPGQAMGVGDPSGYAKRTGGGGYQQAPPVQAGVCYGGGVGFGAGGQQMGMVGPLSPVSSDGLGHGQVDNIGGQYGVDMGGLRGRKRVVDGPVEKVVERRQRRMIKNRESAARSRARKQAYTVELEAELNQLKEENAQLKHALAELERKRKQQYFESLKSRAQPKLPKSNGRLRTLMRNPSCPL
In the case of B1, the binding result in assay [1] is on record as “no binding”; in assay [2], “no binding”; in assay [3] it was “no binding”; in assay [4], “binds”; in assay [5], “no binding”; in assay [6], “no binding”.
